Over roughly 110,000 compounds, “z-score” has its median near -0.1; the highest 2% begin near 2. The list shows a part of the results. Active and inactive are the calls of the source.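 How the source made its calls: active means z-score in the third read window above 3 or below -3; inactive means the rest.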
biological target: Metabotropic glutamate receptor 8 (Rattus norvegicus) (UniProt P70579); experiment: rat mGluR8 modulators via GIRK flux, primary screen, cell-based, thallium flux, HTS (AID 488969); conditions: HEK293 rat mGluR8, GIRK (G protein-gated inwardly rectifying potassium channel) thallium flux, FluoZin2; at 10 µM; stronger effect = higher value; submaximal glutamate (EC20) added with thallium
Sequence of UniProt P70579 (P70579 whole entry, looked up): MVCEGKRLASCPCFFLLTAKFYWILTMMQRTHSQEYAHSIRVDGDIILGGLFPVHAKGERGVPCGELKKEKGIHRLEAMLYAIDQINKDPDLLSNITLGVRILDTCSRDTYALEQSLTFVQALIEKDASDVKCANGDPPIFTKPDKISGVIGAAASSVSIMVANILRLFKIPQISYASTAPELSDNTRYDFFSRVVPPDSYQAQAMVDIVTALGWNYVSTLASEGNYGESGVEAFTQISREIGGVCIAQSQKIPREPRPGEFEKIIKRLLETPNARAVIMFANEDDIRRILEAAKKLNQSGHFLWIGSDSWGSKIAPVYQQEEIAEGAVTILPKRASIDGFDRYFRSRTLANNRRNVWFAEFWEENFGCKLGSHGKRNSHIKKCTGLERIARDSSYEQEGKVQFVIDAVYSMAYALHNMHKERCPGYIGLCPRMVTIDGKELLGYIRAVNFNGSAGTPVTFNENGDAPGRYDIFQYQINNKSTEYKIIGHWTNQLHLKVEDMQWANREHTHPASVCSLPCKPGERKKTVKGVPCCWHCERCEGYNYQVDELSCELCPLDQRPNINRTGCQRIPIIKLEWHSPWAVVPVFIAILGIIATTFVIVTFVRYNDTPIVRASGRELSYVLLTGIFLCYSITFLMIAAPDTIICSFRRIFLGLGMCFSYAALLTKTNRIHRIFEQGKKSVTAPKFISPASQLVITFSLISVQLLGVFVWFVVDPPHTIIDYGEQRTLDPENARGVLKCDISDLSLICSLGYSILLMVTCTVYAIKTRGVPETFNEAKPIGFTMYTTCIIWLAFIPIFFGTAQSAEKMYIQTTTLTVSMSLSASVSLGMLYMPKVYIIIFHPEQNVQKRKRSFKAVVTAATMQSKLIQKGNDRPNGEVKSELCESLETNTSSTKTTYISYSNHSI

| Compound | z-score |
| --- | --- |
| CCCCc1nc2sc3c(SCC(=O)NCc4ccco4)ncnc3c2c2c1CCC2 | -0.00368 |
| COC(=O)Nc1sc2c(c1C(=O)NC1CC1)CCCCCC2 | 0.0798 |
| Cc1ccc(S(=O)(=O)n2cnc3ccccc32)cc1 | 0.304 |
| COc1ccc(-c2nc(C(N)=O)c3[nH]c(=O)n(-c4ccccc4OC)c3n2)c(OC)c1 | -0.97 |
| CCc1nnc(NC(=O)CSc2nc(C3CCCCC3)nc3ccccc23)s1 | 0.127 |
| Cn1c(SCC(=O)NC(C)(C)C)nnc1-c1cnccn1 | 0.611 |
| N=c1n(CCO)c2ccccc2n1Cc1ccccc1Cl | -0.391 |
| CC(=O)Nc1nc2c(ncn2COCCOC(C)=O)c(=O)[nH]1 | -0.00625 |
| COc1cccc(Nc2cc(N3CCOCC3)c3nonc3c2[N+](=O)[O-])c1 | 0.638 |
| COc1ccc(OCC(=O)NNC(=O)c2cccnc2)cc1 | -0.15 |
| Cc1ccc(C(=O)NCCCc2ccccc2)s1 | 0.115 |
| O=C(CSc1nc(N2CCCCC2)nc(N2CCCCC2)n1)NC1CCCCC1 | -0.029 |
| CCc1nnc(NC(=O)Cn2nc(-c3ccc(OC)c(OC)c3)ccc2=O)s1 | 0.2 |
| Cn1c2c(c(=O)n(C)c1=O)C(c1ccc(Br)cc1)Nc1ccccc1O2 (stereo not given) | -1.44 |
| COc1ccc(-c2cn3cccnc3n2)cc1F | -0.215 |
| O=C1N=C(N2CCOCC2)S/C1=C/c1cccs1 | -0.0392 |
| O=C(Nc1nnc(-c2cccs2)o1)c1ccco1 | -0.203 |
| O=C(Nc1ccc(F)cc1)N(Cc1cccs1)Cc1cc2cc3c(cc2[nH]c1=O)OCO3 | -0.158 |
| O=C(c1csc2c1CCCC2)N1CCN(c2ccc(F)cc2)CC1 | 0.178 |
| O=P(Cc1ccccc1)(c1ccccc1)c1ccccc1 | -0.059 |
| O=C(C[n+]1cc(-c2ccccc2)n2c1CCC2)Nc1nc(-c2ccc(F)cc2)cs1 | -0.13 |
| COc1ccc(N(C(=O)Cn2cnc3ccccc32)C(C(=O)NC2CCCCC2)c2ccccc2)cc1 (stereo not given) | -0.87 |

| Compound | z-score |
| --- | --- |
| COc1ccccc1/C=N/Nc1nccnc1Cl | -0.0648 |
| O=C(Cc1ccc(-c2ccccc2)cc1)N1CCOCC1 | -0.145 |
| Cc1ccc2c(c1)sc1nc(=O)n(-c3ccc(Cl)cc3)c(=O)n12 | -0.0321 |
| CCCOc1ccc(C(CC(=O)O)NC(=O)c2cccs2)cc1 (stereo not given) | -0.0701 |
| Cc1[nH]n(-c2ccccc2)c(=O)c1C1(C(F)(F)F)C(=O)N(c2ccc(F)cc2)C2=C1C(=O)CC(C)(C)C2 (stereo not given) | -0.233 |
| Cc1ccc(-c2cc(N)n3nc(-c4ccc(C)cc4)cc3n2)cc1 | -0.0653 |
| Cc1cc(Cl)ccc1NC(=S)NCc1ccc(Cl)cc1 | 0.0662 |
| O=C(NCc1cccs1)C1CCC(CNS(=O)(=O)c2cccc3nsnc23)CC1 (stereo not given) | 0.00195 |
| CCC(C)NC(=O)CCC(=O)Nc1ccc2nc(N3CCOCC3)cc(C)c2c1 (stereo not given) | -0.289 |
| Cc1cccc(NC(=O)CCSc2nnc(Cc3ccccc3)o2)c1 | -0.0112 |
| CC(Cc1cccs1)NC(=O)Nc1ccc(Cl)c(Cl)c1 (stereo not given) | -0.192 |
| COc1cccc(/C=N/n2c(=S)n(C)c3ccccc32)c1OC | 2.32 |
| CC(=O)Nc1cc(C(=O)N(C)Cc2ccco2)ccc1Sc1ccc(C)cc1 | -1.5 |
| O=C(NCc1ccccc1)/C(=N\O)c1ccccc1 | 0.503 |
| Cc1nnc(N2CCN(c3ccccc3)CC2)c2nn(-c3ccccc3F)c(C)c12 | -2.33 |
| CCN(Cc1ccccc1)Cc1cc(OC)cc(OC)c1 | 1.4 |
| COCCCNCCOc1ccc(C)cc1[N+](=O)[O-] | -0.153 |
| Cc1cccc(NC(=O)CCc2ccc(S(=O)(=O)NC3CCCCC3)cc2)c1 | -0.429 |
| CC(C)=CCC/C(C)=C/C=N/NC(=O)c1cccc([N+](=O)[O-])c1 | -1.06 |
| COc1ccc(N(CC(=O)NCCC2=CCCCC2)S(C)(=O)=O)cc1 | 0.157 |
| O=S(=O)(Nc1ccccn1)c1cnc(Cl)c(Br)c1 | 0.232 |
| COC(=O)C1=NN(C(=O)c2ccccc2)C(C)(O)C1 (stereo not given) | 0.19 |

| Compound | z-score |
| --- | --- |
| CN(C)S(=O)(=O)c1ccc(N2CCCC2)c(C(=O)NCc2cccc(C(F)(F)F)c2)c1 | -0.318 |
| CN(C)CCCC(=O)c1ccc2c(c1)OCO2 | 0.68 |
| O=C(c1ccco1)N1CCN(CCCCN2C(=O)c3ccccc3C2=O)CC1 | -0.408 |
| COc1ccc(Cl)cc1C(=O)N1CCN(c2ccccn2)CC1 | -0.477 |
| Cc1ccc2c(c1)N(S(=O)(=O)c1ccc(F)cc1)C(C(C)(C)C)CO2 (stereo not given) | -0.0745 |
| Cc1nc([N+](=O)[O-])c(N2CCN(Cc3ccccc3)CC2)n1Cc1ccccc1 | -0.497 |
| Cc1ccc(N(Cc2ccc(C(=O)NCCSc3ccccn3)cc2)S(C)(=O)=O)cc1C | -0.812 |
| COC(=O)CSc1nc(C)cc(C(F)(F)F)c1C#N | -0.121 |
| CN1OC(c2ccccc2)=C(CO)C1c1ccccc1 (stereo not given) | -0.299 |
| COc1cc(C(=O)N/N=C(\C)Cc2ccccc2)cc(OC)c1OC | 0.199 |
| Cc1cccc(-n2ncc3c(N4CC(C)CC(C)C4)ncnc32)c1 (stereo not given) | -0.189 |
| O=C(CN1CCCCC1)Nc1cccc(Cl)c1Cl | -0.108 |
| O=C(NCCc1cn2ccccc2n1)c1ccc(Br)o1 | -0.00828 |
| COc1ccc(OC)c(C2CC(=O)N3CN(c4ccccc4F)CSC3=C2C#N)c1 (stereo not given) | -0.436 |
| Cc1nn(C)c(C(=O)N2CCN(C(=O)c3ccco3)CC2)c1[N+](=O)[O-] | -0.127 |
| CN(C)Cc1cc(CN(C)C)c(O)c(CCc2ccccc2)n1 | -0.277 |
| Cn1c(SCC(=O)N2CCCCCC2)nc2c([nH]c3ccccc32)c1=O | 0.0138 |
| O=C(Nc1ccc2oc(-c3cccc4ccccc34)nc2c1)c1ncn[nH]1 | -0.113 |
| COc1ccc(C(C)=O)c2c(O)cccc12 | -0.23 |
| COc1ccc(-c2cc(C(=O)N3CCN(c4ncccn4)CC3)c3ccccc3n2)c(OC)c1 | -0.629 |
| COc1ccc(/C=C2\SC(=NCc3ccccc3)N(Cc3ccccc3)C2=O)cc1OC | 0.162 |
| Cc1cccc(-n2ncc3c(NCCN4CCOCC4)ncnc32)c1 | -0.521 |

| Compound | z-score |
| --- | --- |
| COc1ccccc1/C=C/C(=O)N1CCOCC1 | -0.054 |
| Cc1sc(NC(=S)NC(=O)c2ccccc2)c(C#N)c1C | 1.42 |
| O=C(Cn1c(=O)oc2ccccc21)N1CCN(c2ccc(N3CCOCC3)nn2)CC1 | -0.0815 |
| O=C(Nc1nnc(-c2cccs2)o1)c1cccc(Oc2ccccc2)c1 | active: 14 |
| CC1CCCC(n2c(=S)[nH]c3ccccc3c2=O)C1C (stereo not given) | active: 9.07 |
| CCS(=O)(=O)c1ccc2c(c1)N(S(=O)(=O)c1ccc(OC)cc1)CC(C(=O)O)O2 (stereo not given) | -0.678 |
| O=C(NC1CCN(C(=O)N2c3ccccc3Sc3ccccc32)CC1)c1ccccc1F | -0.247 |
| CCOc1ccccc1N1CCN(C(=O)CCCc2nc3ccccc3s2)CC1 | -0.554 |
| CCOc1ccc(N(CC(=O)NCc2ccco2)S(=O)(=O)c2ccc(OC)c(OC)c2)cc1 | -0.204 |
| CCCCCCC1/C(=N/O)CCC1C(=O)OC (stereo not given) | 0.164 |
| Cc1ccc(S(=O)(=O)N2CCC(C(N)=O)CC2)c(C)c1C | 0.396 |
| O=C1CC(c2ccc(S(=O)(=O)N3CCCCC3)cc2)CN1 (stereo not given) | -2.53 |
| COc1cccc(C(=O)NC(=S)Nc2ccc3c4c(cccc24)CC3)c1 | 2.83 |
| COc1ccc2c(=O)c(-c3cnn(-c4ccccc4)c3)c(C)oc2c1 | 0.0559 |
| COC(=O)c1ccc(-c2cc(C(=O)O)c3cc4c(cc3n2)OCCO4)cc1 | 0.138 |
| O=C(Nc1ccc(-c2nc3ccccc3c(=O)o2)cc1)c1ccco1 | -0.282 |
| Cc1cccc(Nc2ncnc3nc[nH]c23)c1C | 0.813 |
| CCN1C(=O)S/C(=C/c2ccc(Sc3nc4ccccc4[nH]3)o2)C1=O | -0.108 |
| O=C(c1ccccc1)c1ccc(OCC(O)CN2CCN(S(=O)(=O)N3CCCCC3)CC2)cc1 (stereo not given) | 0.198 |
| COc1ccc(OCCn2c(C)c(/C=N/n3cnnc3)c3ccccc32)cc1 | 0.371 |
| CCOC(=O)c1ccc(NS(=O)(=O)c2cc(C)ccc2OC)cc1 | 0.456 |
| COC(=O)c1ccc(N2CCN(S(=O)(=O)c3ccccc3)CC2)c([N+](=O)[O-])c1 | -0.111 |

| Compound | z-score |
| --- | --- |
| c1ccc(-c2nc(NCC3CCCO3)c3ccccc3n2)nc1 (stereo not given) | -0.0294 |
| Cc1ccc(S(=O)(=O)c2nc(-c3ccco3)oc2SCC(=O)NCC2CCCO2)cc1 (stereo not given) | 0.122 |
| O=C(NCc1ccc2c(c1)OCO2)c1ccc(S(=O)(=O)N2CCCCC2)cc1 | -0.0895 |
| CNC(=O)CCSc1ccc(C)cc1 | 1.02 |
| COCCCNCC1C(Oc2ccc(Cl)cc2)C(=O)N1c1ccccc1C (stereo not given) | 0.258 |
| CCOc1cc(C(=O)OCC(=O)c2c[nH]c3ccccc23)ccc1OCC(=O)N1CCOCC1 | -0.0857 |
| Cc1ccc(S(=O)(=O)N(CC(=O)N2CCOCC2)CC(=O)N2CCOCC2)cc1 | 0.284 |
| O=C(Nc1nccs1)NC(C(F)(F)F)C(F)(F)F | 0.0731 |
| COC(=O)c1cc(C(=O)OC)n(Cc2ccc(Cl)cc2Cl)n1 | -0.126 |
| N#Cc1cn(CCOc2ccccc2F)c2ccccc12 | -0.493 |
| COc1ccc(CNC(=O)c2cccnc2Sc2ccc(Cl)cc2)cc1 | 0.577 |
| Cc1ccccc1C(=O)NN(C)c1nc2ccccc2nc1C(F)(F)F | -0.161 |
| O=C(Cn1nc(Cc2cccnc2)c2ccccc2c1=O)NCCCN1CCCC1=O | 0.264 |
| CC(C)CNC(=O)c1nc(-c2ccccc2)n(-c2ccccc2)n1 | -0.332 |
| Cc1ccc(-c2cn(S(=O)(=O)c3cccc4nsnc34)nc2N)cc1 | -1.12 |
| O=C(c1ccc(F)cc1)N1CCN(C(=O)c2cccnc2)CC1 | -0.493 |
| O=C(Nc1ccc2ccccc2c1)c1onc2c1CCCC2 | 0.0246 |
| [2H]c1c([2H])c([2H])c(C(=O)c2sc(N3CCCCCC3)nc2-c2ccccc2)c([2H])c1[2H] | -0.327 |
| CN(C)c1ccc(NC(=O)c2cccc(N3C(=O)C4C5C=CC(C5)C4C3=O)c2)cc1 (stereo not given) | -0.147 |
| Cc1cccc(N2CCN(C(=O)C3CCCN(S(=O)(=O)c4c(C)noc4C)C3)CC2)c1C (stereo not given) | -0.465 |
| CN(C)c1ccc(/C=N/NC(=O)c2ccc(CN3C(=O)c4cccc5cccc3c45)cc2)cc1 | -0.1 |
| Cc1ccc(S(=O)(=O)NCCCCCC(=O)Nc2ccccn2)cc1 | -0.197 |

From PubChem BioAssay AID488969 (Vanderbilt High Throughput Screening Facility, 2010)
